Test results taken from the supplement of paper PMC9446081.
In all, about 39,000 compounds went through this assay and about 220 (0.56%) showed activity. The list shows a part of the results.

The molecules below were run on Escherichia coli K-12 BW25113 (assay: relative growth (OD600 normalised to plate interquartile mean) (fraction); higher = less growth inhibition, active = 0.2 or less). Conditions: 50 µM; LB; incubation time: overnight (16-24 h).
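Also: static incubation at 37 °C against the wild-type strain, values averaged over two biological replicates.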

Row | SMILES | relative growth
1 | C[C@H](CO)N1C[C@H](C)[C@H](CN(C)C(=O)C2CCCCC2)Oc2cc(C#CC3CC3)ccc2S1(=O)=O | inactive: 1.01
2 | C[C@@H]1CCCCO[C@H](CN(C)S(=O)(=O)c2ccccc2)[C@@H](C)CN([C@@H](C)CO)C(=O)c2cc(NC(=O)Nc3ccc(F)cc3)ccc2O1 | inactive: 1.02
3 | C[C@H](CO)N1C[C@H](C)[C@@H](CN(C)Cc2ccc(Oc3ccccc3)cc2)Oc2cc(Br)ccc2S1(=O)=O | inactive: 1.04
4 | C[C@@H]1CN([C@H](C)CO)C(=O)c2cc(NC(=O)NC3CCCCC3)ccc2O[C@H]1CN(C)S(=O)(=O)c1cn(C)cn1 | inactive: 0.979
5 | C[C@H](CO)N1C[C@H](C)[C@@H](CN(C)C(=O)Nc2cccc3ccccc23)Oc2ccc(NS(=O)(=O)c3ccc(Cl)cc3)cc2C1=O | inactive: 1.02
6 | C[C@H]1CCCCO[C@H](CN(C)S(=O)(=O)c2ccc(Cl)cc2)[C@@H](C)CN([C@@H](C)CO)C(=O)c2cc(NC(=O)c3ccccc3)ccc2O1 | inactive: 1.01
7 | Cc1ccc(S(=O)(=O)N(C)C[C@H]2Oc3ccc(NC(=O)Nc4ccc(C(F)(F)F)cc4)cc3C(=O)N([C@H](C)CO)C[C@H]2C)cc1 | inactive: 1.01
8 | C[C@H]1CN([C@@H](C)CO)C(=O)c2cc(NC(=O)Nc3ccc(C(F)(F)F)cc3)ccc2O[C@@H]1CN(C)C(=O)Nc1ccccc1 | inactive: 0.967
9 | C[C@@H]1CCCCO[C@H](CN(C)Cc2ccc3c(c2)OCO3)[C@H](C)CN([C@H](C)CO)C(=O)c2cc(NC(=O)Nc3cccc4ccccc34)ccc2O1 | inactive: 1.03
10 | COCC(=O)Nc1ccc2c(c1)OC[C@H](C)N(C(=O)Cc1ccccn1)C[C@@H](C)[C@@H](OC)CN(C)C2=O | inactive: 1.03
11 | CC[C@@H](C)N[C@H]1CCS(=O)(=O)C1 | inactive: 0.981
12 | C[C@H](CO)N1C[C@H](C)[C@H](CN(C)Cc2ccc(C(=O)O)cc2)Oc2c(NS(=O)(=O)c3cn(C)cn3)cccc2C1=O | inactive: 1.02
13 | CC(C)OC(=O)c1nnc(N)[nH]1 | inactive: 0.967
14 | CC(C)NC(=O)N[C@@H]1C=C[C@H](CC(=O)NCCCN(C)C)O[C@@H]1CO | inactive: 1.07
15 | CO[C@@H]1CN(C)C(=O)c2cc(NC(=O)Nc3cccc(F)c3)ccc2OC[C@H](C)N(C(=O)Nc2c(C)noc2C)C[C@@H]1C | inactive: 1
16 | C[C@@H]1CN([C@@H](C)CO)C(=O)c2cc(NC(=O)CCC(F)(F)F)ccc2O[C@@H](C)CCCCO[C@@H]1CN(C)Cc1ccccc1 | inactive: 0.987
17 | COCC(=O)Nc1ccc2c(c1)C(=O)N(C)C[C@@H](OC)[C@H](C)CN(Cc1ccccc1F)[C@H](C)CO2 | inactive: 0.989
18 | C[C@@H]1CN([C@@H](C)CO)C(=O)c2cc(Br)cnc2O[C@H]1CN(C)C(=O)CCN1CCCCC1 | inactive: 1.02
19 | C[C@H](CO)N1C[C@H](C)[C@H](CN(C)S(=O)(=O)c2cn(C)cn2)Oc2ncc(C#Cc3ccc(C(F)(F)F)cc3)cc2C1=O | inactive: 0.902
20 | CCCCc1c(C)nc2ccc(Br)cc2c1SC(N)N | inactive: 1.01

Row | SMILES | relative growth
21 | CC(C)NC(=O)N(C)C[C@@H]1Oc2c(NS(=O)(=O)c3cccs3)cccc2C(=O)N([C@@H](C)CO)C[C@@H]1C | inactive: 0.984
22 | C[C@H]1CCCCO[C@@H](CN(C)Cc2ccccc2)[C@@H](C)CN([C@@H](C)CO)C(=O)c2cc(NC(=O)Nc3cccc4ccccc34)ccc2O1 | inactive: 1.04
23 | C[C@@H]1CCCCO[C@H](CN(C)C(=O)Nc2ccc(C(F)(F)F)cc2)[C@H](C)CN([C@H](C)CO)C(=O)c2cc(NS(=O)(=O)c3cn(C)cn3)ccc2O1 | inactive: 0.97
24 | Cc1noc(C)c1NC(=O)Nc1cccc2c1O[C@@H](CN(C)Cc1ccc(Cl)c(Cl)c1)[C@H](C)CN([C@H](C)CO)C2=O | inactive: 1.04
25 | Cn1c(N)c(NC(=O)c2cccs2)c(=O)[nH]c1=O | inactive: 0.998
26 | C[C@H](CO)N1C[C@H](C)[C@H](CN(C)S(=O)(=O)c2ccc(F)cc2)Oc2ncc(C#Cc3ccccc3)cc2C1=O | inactive: 1.01
27 | Cc1noc(C)c1NC(=O)N(C)C[C@H]1Oc2ccc(NS(=O)(=O)c3cn(C)cn3)cc2CC(=O)N([C@H](C)CO)C[C@@H]1C | inactive: 0.996
28 | C[C@@H]1CCCCO[C@@H](CN(C)C(=O)Nc2ccc(F)cc2)[C@H](C)CN([C@H](C)CO)C(=O)c2cc(NC(=O)C3CCCCC3)ccc2O1 | inactive: 1.05
29 | C[C@@H]1CCCCO[C@@H](CN(C)S(=O)(=O)c2cn(C)cn2)[C@@H](C)CN([C@H](C)CO)C(=O)c2cc(NS(C)(=O)=O)ccc2O1 | inactive: 0.983
30 | O=C(C[C@@H]1CC[C@H](NC(=O)Cc2ccccn2)[C@H](CO)O1)NCCCN1CCOCC1 | inactive: 0.992
31 | C[C@H]1CN([C@@H](C)CO)C(=O)Cc2cc(NS(=O)(=O)c3ccc(F)cc3)ccc2O[C@@H]1CN(C)S(=O)(=O)c1ccccc1 | inactive: 1
32 | COCCOC(=O)N1C(=O)[C@@]2(c3cc(C#Cc4ccc(OC)cc4)ccc31)[C@H](C(=O)N1CCc3cc(OC)c(OC)cc3C1)[C@H]1C(=O)O[C@H](c3ccccc3)[C@H](c3ccccc3)N1[C@@H]2c1ccc(OCCO)cc1 | inactive: 1.02
33 | CCc1nc2ccc(C(=O)Nc3cccc(OCC(=O)N(C)C)c3)cn2c1N(CCN(C)C)CC1CC1 | inactive: 0.984
34 | CCC1OC(=O)C(C)C(=O)C(C)C(OC2OC(C)CC(N(C)C)C2O)C(C)(OC)CC(C)C(=O)C(C)C2N(CCCCn3cnc(-c4cccnc4)c3)C(=O)OC12C (centres undefined) | active: 0.0499
35 | C[C@H](CO)N1C[C@H](C)[C@@H](CN(C)C(=O)c2ccc(N3CCN(C)CC3)cc2)OCc2cnnn2CCCC1=O | inactive: 0.997
36 | CCCN(C)C[C@@H]1OCCCC[C@@H](C)Oc2ccc(NC(=O)CCCCCC(=O)Nc3ccccc3N)cc2C(=O)N([C@H](C)CO)C[C@@H]1C | inactive: 0.959
37 | COc1cnc(-n2cnc(C)n2)c2c1c(C(=O)C(=O)N1CCN(C(=O)c3ccccc3)CC1)cn2COP(=O)(O)O | inactive: 1.02
38 | CCS(=O)(=O)Nc1ccc2c(c1)C(=O)N(C)[C@H]1CC[C@H](CC(=O)NCCCN3CCOCC3)O[C@@H]1CO2 | inactive: 1.04
39 | C[C@@H]1CCCCO[C@H](CN(C)C(=O)Nc2ccc(C(F)(F)F)cc2)[C@H](C)CN([C@H](C)CO)C(=O)c2cc(NC(=O)Nc3ccc(C(F)(F)F)cc3)ccc2O1 | inactive: 1
40 | C[C@@H]1CN([C@@H](C)CO)C(=O)c2cc(NC(=O)Nc3ccc(C(F)(F)F)cc3)ccc2O[C@@H](C)CCCCO[C@H]1CN(C)S(=O)(=O)c1ccc(F)cc1 | inactive: 0.996

Row | SMILES | relative growth
41 | Cc1noc(C)c1S(=O)(=O)Nc1ccc2c(c1)C(=O)N([C@H](C)CO)C[C@H](C)[C@@H](CN(C)C(=O)Nc1ccc(C(F)(F)F)cc1)OCCCC[C@@H](C)O2 | inactive: 0.989
42 | O=c1ccn([C@H]2C[C@H](O)[C@@H](CO)O2)c(=O)[nH]1 | inactive: 1
43 | C[C@H](CO)N1C[C@H](C)[C@@H](CN(C)Cc2cccc(O)c2)OCc2ccccc2-c2c(n(C)c3ccccc23)C1=O | inactive: 0.996
44 | CN(C)C=C(C=[N+](C)C)c1[nH]ncc1N | inactive: 1.04
45 | C[C@@H]1CCCCO[C@@H](CN(C)C(=O)Nc2ccccc2)[C@H](C)CN([C@H](C)CO)C(=O)c2cc(NS(=O)(=O)c3cccs3)ccc2O1 | inactive: 1.03
46 | C[C@@H]1CN([C@H](C)CO)C(=O)c2cc(NC(=O)Cc3cn(C)c4ccccc34)ccc2O[C@@H]1CN(C)C(=O)Nc1ccc(C(F)(F)F)cc1 | inactive: 0.996
47 | C[C@H]1CCCCO[C@@H](CN(C)CC2CCCCC2)[C@@H](C)CN([C@@H](C)CO)C(=O)c2cc(NC(=O)CCCN(C)C)ccc2O1 | inactive: 0.932
48 | O=S1(=O)CO[C@@H](c2ccccc2)CN1 | inactive: 0.95
49 | O=c1[nH]cc(F)c(=O)[nH]1 | active: 0.196
50 | C[C@H](CO)N1C[C@H](C)[C@H](CN(C)S(=O)(=O)c2cccc(F)c2)Oc2ncc(-c3ccccc3)cc2C1=O | inactive: 0.992
51 | C[C@@H]1CN([C@@H](C)CO)C(=O)c2cc(NC(=O)NC3CCCCC3)ccc2O[C@@H](C)CCCCO[C@H]1CN(C)Cc1ccc2c(c1)OCO2 | inactive: 0.998
52 | CO[C@@H](CN(C)C(=O)c1ccc2c(c1)OCO2)[C@H](C)CN([C@@H](C)CO)S(=O)(=O)c1ccc(Cl)cc1 | inactive: 1.01
53 | C[C@H](CO)N1C[C@H](C)[C@H](CN(C)Cc2ccc3c(c2)OCO3)Oc2ccc(NC(=O)c3ccncc3)cc2C1=O | inactive: 1
54 | Cc1ccc(S(=O)(=O)N(C)C[C@H]2Oc3ccc(NS(=O)(=O)c4ccccc4)cc3CC(=O)N([C@H](C)CO)C[C@@H]2C)cc1 | inactive: 0.968
55 | Cc1noc(C)c1S(=O)(=O)N(C)C[C@@H]1Oc2ccc(NS(=O)(=O)c3ccccc3)cc2C(=O)N([C@H](C)CO)C[C@@H]1C | inactive: 1.03
56 | Br.NC(=O)C(c1ccccc1)(c1ccccc1)C1CCN(CCc2ccc3c(c2)CCO3)C1 (centres undefined) | inactive: 1.11
57 | C[C@H](CO)N1C[C@H](C)[C@H](CN(C)CC2CCOCC2)Oc2ncc(C#Cc3cccc(F)c3)cc2C1=O | inactive: 0.991
58 | Cc1ccc(S(=O)(=O)N(C)C[C@@H]2Oc3ccc(NC(=O)Nc4cccc5ccccc45)cc3C(=O)N([C@@H](C)CO)C[C@H]2C)cc1 | inactive: 1.01
59 | Cc1ccc(OC(=O)n2c3ccccc3c3ccccc32)cc1 | inactive: 1
